# In ChEMBL document CHEMBL4888484, “Replenishing the malaria drug discovery pipeline: Screening and hit evaluation of the MMV Hit Generation Library 1 (HGL1) against asexual blood stage Plasmodium falciparum ,using a nano luciferase reporter read-out” (2022):
# The campaign covered roughly 150,000 compounds. About 540 (0.36%) showed an effect of 50% or more. The list shows a part of the results.
# Test system: Plasmodium falciparum
# Assay: Primary screen in NF54 nanoGlo assay, in single point, at 2uM, 72h; a lower Z score goes with more inhibition
# Assay type: functional, Erythrocyte
# Conditions: timepoint 72 hour
SMILES,% Inhibition [%],Z score
COCc1csc(NC(=O)N2CC[C@H](C3CCCC3)C2)n1,3,-0.61
CC(C)[C@H](C)NC(=O)Cc1csc(-c2ccc3c(c2)OCCO3)n1,-3,0.3
Cc1nc(C(C)C)sc1C(=O)N1C[C@@H]2CC[C@H]1CN(S(C)(=O)=O)C2,1,-0.24
COc1cc(CN2C(=O)[C@@H]3CCCN3C2=O)ncc1C,9,-1.61
CCC(c1ccccc1)S(=O)(=O)NC(=O)[C@H]1CCCC[C@@H]1C(F)(F)F (stereo not given in full),4,-0.78
Cc1nc(-c2ccc(C)c(S(=O)(=O)NC3CCC(C)CC3)c2)no1 (stereo not given),7,-0.92
Cn1cc(C(F)F)c(CNC(=O)[C@]2(c3ccccc3)CCCO2)n1,1,-0.22
Cc1nncn1CCN1CCO[C@@H](CC(C)C)C1,-8,1.03
O=C(CN1C(=O)CCc2cc(S(=O)(=O)N3CCCC3)ccc21)NCc1ccc(Cl)cc1,-2,0.29
O=C(C[C@H]1CCCO1)Nc1ccc(OC2CCC2)c(F)c1,-3,0.38
Cc1ccc(C(F)(F)F)cc1CN(C)CC(C)(C)CO,6,-0.63
COc1cccc(Cc2nc(CCc3ccc4c(c3)CCO4)no2)n1,-11,1.54
CC1=CCCC(C)C1CNCC1CCCO1 (stereo not given),-9,1.36
CCOC(=O)N1CCC(NC(=O)c2coc(NC(=O)c3ccco3)n2)CC1,-4,0.56
CC(=O)Nc1cc(Br)ccc1CN1CCO[C@H](c2nc(C)n[nH]2)C1,1,-0.17
Cc1ccc(C(=O)C(=O)Nc2cc(C(C)(C)C)nn2[C@H]2CCS(=O)(=O)C2)cc1,-23,3.6
Fc1cccnc1O[C@H]1CCCN(c2nc(C3CC3)ns2)C1,3,-0.35
COc1ccc(C(=O)N2C[C@@H]3C[C@H](N(C)C)CN3C(=O)[C@@H]2CC(C)C)cn1,-6,0.79
Cc1cnc(CN2CC3(CCC2=O)CCN(Cc2cccc(O)c2)CC3)cn1,-6,1.11
O=C(Nc1cccc2cccnc12)N1CCC[C@H](CO)C1,-6,1.19
Cc1cccc(C2CCCCN2C(=O)c2cnc(C(C)O)s2)c1C (stereo not given),-9,0.79
Cc1nn(-c2ccc3nncn3n2)c(C)c1CCC(=O)N1CCCCCC1,-12,1.55

SMILES,% Inhibition [%],Z score
c1ccc2c(c1)N=C(NCc1ccc3c(c1)OCO3)C1(CCCCCC1)N2,12,-1.51
Cc1ccc(N2C(=O)NC3c4ccccc4OC2(C)C3C(=O)Nc2ccc(Cl)cc2)cc1Cl (stereo not given),33,-4.51
CC(C)(CNc1nc(C2CCCC2)ns1)C1(O)CCOCC1,-8,1.43
O=C(O)c1ccc(Nc2nc(N3CCCCC3)nc(N3CCCCC3)n2)cc1,32,-3.58
Cn1c(C(=O)N2CC3CCC2C3)cccc1=O (stereo not given),9,-1.07
O=C1c2ccccc2N[C@H](c2ccc3c(c2)OCCO3)N1c1ccc2c(c1)OCCO2,7,-0.91
Cc1cc2c(cc1S(=O)(=O)N1CCC[C@H](C(=O)NC(C)(C)C)C1)OCC(=O)N2,0,0.05
CC1(C)C[C@]1(C(=O)N1CCS(=O)(=O)CC1)c1ccccc1F,2,-0.31
COc1ccc(NS(=O)(=O)c2ccc3[nH]c4c(c3c2)CCCCCC4)cc1,-18,2.21
CC1(C(=O)N[C@H]2CCO[C@H](c3ccccn3)C2)CC1F (stereo not given in full),30,-4.37
Cc1cc(C(=O)N2CC[C@@]3(CCCN(C4CCCC4)C3=O)C2)c(C)n1C,-6,0.63
O=C(CS(=O)(=O)c1ccc(O)cc1)N(C1CCCCC1)C1CCCCC1,-8,0.8
COC1(OC)CC2(CN(Cc3ncc(C)o3)[C@@H]2c2ccccc2)C1,-1,0.15
COc1ccccc1OCC(=O)N[C@@H]1C[C@H]2CC[C@@H]1C2,1,-0.17
COc1ccc(C(=O)N2[C@H](C(=O)NCc3ccco3)COC23CCN(C(=O)CC(C)(C)C)CC3)cc1,7,-0.79
O=C(N[C@H](c1ccccc1)c1cc2ccccc2o1)c1ccc2c(c1)OCO2,-7,0.98
O=S(=O)(Nc1ccc(Cc2ccccn2)cc1)c1ccc2oc3ccccc3c2c1,-3,0.34
COc1cc(C)c(-c2cccc(C(=O)NCCc3n[nH]c(=O)n3C)c2)cn1,-7,1.2
O=S1(=O)CCN(Cc2nc3cc(C(F)(F)F)ccc3o2)CC1,2,-0.23
Cc1cnc(C(=O)NCC(=O)N2CCCCCCNC(=O)C[C@H]2c2ccccc2)cn1,-6,0.94
COC(=O)CN(C(=O)c1cccc(N(C)C)c1)C1CCCC1,3,-0.4
O=C(Nc1nc(-c2ccc3c(c2)COC3)cs1)C1CC2CCC1C2 (stereo not given),-18,2.83

SMILES,% Inhibition [%],Z score
O=C(Nc1ccc(O)cc1)c1nn2c(c1Cl)N[C@@H](c1cccs1)C[C@H]2C(F)(F)F,-9,1.36
Cc1ncc(CN(C)CC2(CO)CCC2)cn1,12,-1.62
CC(C)N(CCO)C(=O)c1ccc2oc(-c3ccc(C(F)(F)F)cc3)nc2c1,-3,0.58
N#CCC(=O)NCCCc1ccccc1,-15,1.7
C[C@H](NCCOCC1CCC1)c1cccc(O)c1,-11,1.86
O=C(NCC(c1ccco1)c1ccco1)NC1CCCC1,-17,2.43
CCCc1nc(N2CCCN(C(=O)C3CCCCC3)CC2)c2c(C)nn(-c3ccccc3)c2n1,37,-4.98
Cc1ccn(CC(=O)N[C@H]2CCN(c3ccc(=O)n(CC4CC4)n3)C2)n1,2,-0.27
COc1ccc(NC(=O)c2cnc(N(C)C)nc2)cc1OC,8,-1.59
COc1ccc2cc(-c3nc(CCN(C)C(=O)CC(C)C)no3)[nH]c2c1,-8,1.42
CC(C)NC(=O)NCCOc1ccc(F)c(F)c1,-5,0.76
COc1cccc(OCc2nc(C(=O)NCc3cccc(C)n3)co2)c1,9,-1.12
CC1OCCC12CN(C(=O)c1cccc(B(O)O)c1)CCO2 (stereo not given),-9,1.13
S=Cc1c2n(c3ccccc13)CCCN2,-6,1.15
CC(C)c1cnc(CN2CCOc3ccccc3[C@@H]2C(=O)O)o1,2,-0.38
Cc1c(C(=O)N(Cc2ccco2)c2ccccn2)oc2ccccc12,3,-0.52
Cc1cc(Br)ccc1CN(C)CC#N,-9,1.24
Cc1nc(C)c(C(=O)N2C(C(=O)N(C)C)C[C@@H]3OCC[C@@H]32)s1 (stereo not given in full),-6,1.18
Cc1cn2c(n1)CCC(NC1CCCC(C(F)(F)F)C1)C2 (stereo not given),1,-0.08
CN1C[C@H](CNC(=O)c2ccccc2OC(F)(F)C(F)F)OCC1=O,1,-0.14
CN(CCCc1nccn1C)CC1CCCCC1,2,-0.4
COc1ncccc1CN1CC[C@H]2CC(=O)NC[C@H](O)C(C)(C)COCCC[C@H]2C1,-13,1.73

SMILES,% Inhibition [%],Z score
Cn1ccnc(NC(=O)[C@H]2C3CCC(CC3)[C@@H]2C(F)(F)F)c1=O,-5,0.68
O=C(c1ccc2ccccc2n1)N1CCO[C@H](c2ccccc2)C1,-1,0.14
COc1ccccc1Cn1ncc2[nH]c(-c3coc(-c4ccccc4)n3)nc21,-16,2.25
CN(C)S(=O)(=O)N1CCC(N2CCc3cc(F)ccc32)CC1,-8,0.71
CCNC(=O)N(C)Cc1ncc(CC)s1,-12,1.93
Cc1cc(CN(Cc2ccncc2)Cc2ccc(C)s2)[nH]n1,-8,1.29
CC(C)(C)OC(=O)Nc1cccc(F)c1NCC(=O)NCC1CC1,-10,1.62
CCn1nccc1CNc1nnc2cc(C)ccn12,-4,0.3
CC(C)CN=C(NCc1nc(C2CC2)no1)NC1CC1C (stereo not given),13,-1.64
CC(=O)NCc1ccc(CNC(C)=O)cc1,-9,1.11
CCOC(=O)c1cn(C[C@H](O)c2cccc(C#N)c2)nn1,-16,1.83
CN(C(=O)Cn1nc2n(c1=O)CCCC2)c1ccccc1,-7,0.87
Cc1noc(C2CCN([C@@H](C(=O)O)c3ccsc3)CC2)n1,-3,0.43
COc1ccc(Cn2cnc3c4ccccc4n(Cc4ccccc4Cl)c3c2=O)cc1,6,-0.64
C[C@H]1CCCN(C(=O)Cn2c(=O)n(C)c3ccccc32)C1,-20,1.8
c1ccc2nc(N3CC[C@H]4CC[C@@H](C3)N4)cnc2c1,1,-0.14
CN1Cc2cc(NC(=O)[C@H]3CCCC(=O)N3)ccc2NC1=O,-3,0.38
Cc1nonc1COc1cccc(C#N)c1,2,-0.45
C[C@@H](CNC1(CO)CCOCC1)c1cccc(Br)c1,3,-0.26
